# Assay results published in PubChem BioAssay AID493035 (The Scripps Research Institute Molecular Screening Center, 2011).
# Several values for one entry are separate records, joined by “and”; a condition that tells them apart may be missing. Equal values may be shown once. In all, about 2,000 compounds went through this assay and about 45 (2%) were called active.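 Rule for the calls: active = inhibition above the mean of all tested compounds plus 3 SD (cut at about 49% in these data); inactive = the rest.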 The list shows a part of the results.
# Biological target: Perilipin-5 (Homo sapiens) + 1-acylglycerol-3-phosphate O-acyltransferase ABHD5 (Homo sapiens) (UniProt Q00G26+Q8WTS1)
# Assay: blockers of ABHD5 binding to perilipin-5 – cell lysate, split luciferase complementation, luminescence, NIH validation set, pilot screen (AID 493035);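 note: 0% = DMSO only wells while the 100% control is not stated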
# Details: split G. princeps luciferase complementation, lysates, 4 h; at 7.9 µM, hits give high values
# Chain of UniProt Q00G26 (Q00G26 whole entry, looked up): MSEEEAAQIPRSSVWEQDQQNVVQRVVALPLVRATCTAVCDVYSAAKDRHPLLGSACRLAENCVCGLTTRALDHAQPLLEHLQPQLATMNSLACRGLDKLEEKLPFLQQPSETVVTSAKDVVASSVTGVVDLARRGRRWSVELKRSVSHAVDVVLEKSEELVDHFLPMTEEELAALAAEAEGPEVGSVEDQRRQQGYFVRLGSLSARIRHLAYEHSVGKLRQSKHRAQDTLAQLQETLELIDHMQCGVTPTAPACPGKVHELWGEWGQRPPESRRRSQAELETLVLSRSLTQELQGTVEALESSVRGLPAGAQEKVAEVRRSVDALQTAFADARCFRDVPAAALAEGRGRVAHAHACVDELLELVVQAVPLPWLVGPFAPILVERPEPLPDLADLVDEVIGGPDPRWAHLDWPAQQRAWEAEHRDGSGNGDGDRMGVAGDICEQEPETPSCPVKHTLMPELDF
# Chain of UniProt Q00G26 (Q8WTS1 whole entry, looked up): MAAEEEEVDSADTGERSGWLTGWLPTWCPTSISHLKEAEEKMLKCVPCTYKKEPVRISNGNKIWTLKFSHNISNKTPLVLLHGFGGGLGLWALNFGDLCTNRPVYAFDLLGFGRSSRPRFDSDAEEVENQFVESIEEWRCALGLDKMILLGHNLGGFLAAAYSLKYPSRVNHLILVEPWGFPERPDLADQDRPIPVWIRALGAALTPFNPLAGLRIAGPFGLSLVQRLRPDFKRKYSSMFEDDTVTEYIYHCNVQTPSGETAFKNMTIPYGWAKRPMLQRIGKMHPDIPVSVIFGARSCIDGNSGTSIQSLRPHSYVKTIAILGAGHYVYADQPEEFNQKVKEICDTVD
row,SMILES,inhibition
1,Nc1ccc(S(=O)(=O)c2ccc(N)cc2)cc1,inactive: -13.3%
2,O=c1c2ccccc2nnn1Cc1cccc2ccccc12,inactive: 5.18%
3,C#CCN(C)Cc1ccccc1,inactive: -11.8%
4,CCn1cc(C(=O)O)c(=O)c2ccc(C)nc21,inactive: -6.24%
5,O=C(O)c1ccccc1OCCOc1ccccc1,inactive: -3.26%
6,CC(=O)N(CCC(Cc1ccccc1)c1ccc2c(c1)OCO2)Cc1ccc(Cl)cc1 (stereo unspecified),inactive: 7.18%
7,COc1ccc2cc(CCC(C)=O)ccc2c1,inactive: -3.15%
8,CN/C(=C/[N+](=O)[O-])NCCSCc1ccc(CN(C)C)o1,inactive: -2.37%
9,COc1cc2oc(-c3ccc(O)cc3)cc(=O)c2c(OC)c1O,inactive: 0.79%
10,O=C(CCCN1CC=C(n2c(=O)[nH]c3ccccc32)CC1)c1ccc(F)cc1,inactive: -6.46%
11,CCN(CC)CCNC(=O)c1cc(S(C)(=O)=O)ccc1OC,inactive: -2.45%
12,COc1ccc2oc(=O)c(C(=O)Nc3ccccc3-c3ccccc3)cc2c1,inactive: -5.51%
13,C=CCn1c(SCC(=O)NC2CCCCC2)nc2ccccc2c1=O,inactive: -1.42%
14,COc1cc2nc(N3CCN(C(=O)c4ccco4)CC3)nc(N)c2cc1OC,inactive: 0.42%
15,COc1ccc(OC)c(-n2c(Cn3c(-c4ccccn4)nc4ccccc43)n[nH]c2=S)c1,inactive: -5.52%
16,CC(=O)Oc1ccc(C2OC(=O)c3ccccc3N2C(C)=O)cc1 (stereo unspecified),inactive: 1.11%
17,CC(C)(C)OC(=O)NCCC(=O)Oc1ccc2ccc(=O)oc2c1,inactive: -4.73%
18,CCc1cc2c(=O)c(-c3nc4ccccc4n3C)coc2c(CN2CCN(C)CC2)c1O,inactive: -1.12%
19,O=C(O)C1[C@H]2C(=O)N(C3CCCC3)C[C@]23C=C[C@H]1O3 (stereo partly specified),inactive: -13.3%
20,CC(=O)N1CC23C=CC(CC2CC12CCCCCC2)O3 (stereo unspecified),inactive: -4.92%
21,CCN1CCN(C(=S)c2ccc(OC)cc2)CC1,inactive: 14.8%
22,O=C1Cc2ccccc2C(c2ccccc2)N1 (stereo unspecified),inactive: 6.97%
23,O=C(/C=C/c1ccccc1)c1ccccc1,active: 69.7%
24,Cn1cc(CN2CCN(CCO)CC2)c(-c2ccc(Oc3ccccc3)cc2)n1,inactive: -0.18%

row,SMILES,inhibition
1,Cc1nc(NC(CC(C)C)C(=O)O)c2nc(C)oc2n1 (stereo unspecified),inactive: -9.78%
2,CCc1cc2c(=O)c(-c3nc(C)cs3)coc2cc1OC(C)C(=O)NCCO (stereo unspecified),inactive: -5.89%
3,O=C(O)c1ccc(C(=O)C(=O)c2ccccc2)cc1,inactive: -3.75%
4,COc1ccc(CCN2CCC(Nc3nc4ccccc4n3Cc3ccc(F)cc3)CC2)cc1,inactive: -8.88%
5,O=C1CC[C@@H](CN(Cc2ccccc2)Cc2cn[nH]c2-c2cc3ccccc3o2)N1,inactive: 5.78%
6,O=C(COc1ccc(F)cc1)OCCN1CCOCC1,inactive: -5.24%
7,CCN(CC)CC#CCOC(=O)C(O)(c1ccccc1)C1CCCCC1 (stereo unspecified),inactive: -9.21%
8,Cc1ncc([N+](=O)[O-])n1CCO,inactive: -2.22%
9,O=C(N/N=C/c1ccc([N+](=O)[O-])o1)c1ccc(O)cc1,inactive: 3.38%
10,Cn1nc(-c2ccc(Cl)cc2)nc2c(=O)n(C)c(=O)nc1-2,inactive: 42.7%
11,COc1ccccc1/C=C/CN1CCN(Cc2ccc(F)cc2)C(CCO)C1 (stereo unspecified),inactive: -4.81%
12,COc1ccc2c3c([nH]c2c1)C1(NCC3)C(=O)Nc2ccccc21 (stereo unspecified),inactive: -4.51%
13,NC(=O)c1ncn([C@@H]2O[C@H](CO)[C@@H](O)[C@H]2O)c1O,inactive: 8.18%
14,COc1ccccc1-c1ccc(/C=C2/C=C(CC(C)C)OC2=O)o1,inactive: 7.79%
15,Cc1ccc2c(c1)c(=O)c1c3n2CCN(C(=O)CCl)C3CC1 (stereo unspecified),inactive: 30.9%
16,CCc1cc(C(N)=S)ccn1,inactive: -7.04%
17,COc1cc(C(=O)OCCCN(C)C)cc(OC)c1OC,inactive: -0.24%
18,O=C(OCC1CCCN2CCCCC12)c1ccc2c(c1)OCO2 (stereo unspecified),inactive: 2.46%
19,CC1(C)C(=O)OC(/C=C\c2ccccc2)C(C)(C)C1=O (stereo unspecified),inactive: -2.46%
20,CC[C@]1(O)CC2CN(CCc3c([nH]c4ccccc34)[C@@](C(=O)OC)(c3cc4c(cc3OC)N(C=O)[C@H]3[C@@](O)(C(=O)OC)[C@H](OC(C)=O)[C@]5(CC)C=CCN6CC[C@]43[C@@H]65)C2)C1 (stereo partly specified),inactive: 4.36%
21,CNCCC=C1c2ccccc2CCc2ccccc21,inactive: -14.1%
22,O=C1C(Cc2ccccc2)NC(=S)N1c1ccccc1 (stereo unspecified),inactive: -3.78%
23,O=C(c1ccccc1F)c1cc2c(cc1[N+](=O)[O-])OCCO2,inactive: 2.64%
24,Cc1ccc(S(=O)(=O)NC(=O)Nc2cc(C)ccc2F)cc1,inactive: -7.32%

row,SMILES,inhibition
1,O=C1OC(c2ccccc2)=C/C1=C/c1cccs1,inactive: 3.52%
2,Cc1ccc(/C(=C\CN2CCCC2)c2ccccn2)cc1,inactive: -3.06%
3,CCOc1ccc(NC2OC(C)C(O)C(O)C2O)c([N+](=O)[O-])c1 (stereo unspecified),inactive: -5.81%
4,CC1(C)CC(O)(CNCc2ccc3c(c2)OCO3)CCO1 (stereo unspecified),inactive: -10.1%
5,O=C(O)CCCN1C(=O)NC2NC(=O)NC21 (stereo unspecified),inactive: 1.97%
6,O=C(NCCO)c1ccc2[nH]c3ccccc3c2c1,inactive: -4.84%
7,COc1ccc(CN2CCCC(C(=O)c3ccc(Cl)cc3)C2)cc1Cn1cccn1 (stereo unspecified),inactive: 5.67%
8,COC(=O)c1[nH]c2ccc(F)cc2c1NC(=O)C1=COCCO1,inactive: 5.04%
9,CCOc1ccc(CC2c3cc(OCC)c(OCC)cc3CCN2C(=O)CN2CCN(C)CC2)cc1OCC (stereo unspecified),inactive: -0.88%
10,COc1cc(C)nc(-n2nc(C)cc2OC)n1,inactive: -2.37%
11,CS(=O)(=O)Nc1ccc([N+](=O)[O-])cc1Oc1ccccc1,inactive: 6.42%
12,CC(=O)[C@@]1(O)CC[C@H]2[C@@H]3CCC4=CC(=O)CC[C@]4(C)[C@H]3[C@@H](O)C[C@@]21C,inactive: 4.44%
13,Cc1coc2cc3oc(=O)c(CCC(=O)O)c(C)c3cc12,inactive: 3.12%
14,COc1ccc2c(c1OC)C(C1c3c(cc4c(c3OC)OCO4)CCN1C)OC2=O (stereo unspecified),inactive: -2.55%
15,CC(=O)Oc1cc(C(C)C)c(OCCN(C)C)cc1C,inactive: -10.2%
16,CCc1cc(=O)oc2cc(OCc3nn[nH]n3)ccc12,inactive: 2.44%
17,CSc1ccc(/C=N/N2CCN(Cc3ccc(C)cc3C)CC2)cc1,inactive: 2.58%
18,C[C@H](NC(=O)Nc1ccccc1F)C(=O)O,inactive: 3.51%
19,COc1ccc2cc[nH]c2c1,inactive: 5.24%
20,C[N+]12CCC(CC1)C(OC(=O)C(O)(c1ccccc1)c1ccccc1)C2 (stereo unspecified),inactive: -9.92%
21,CC(=O)N1CCn2c3c(c4cc(C)ccc42)CCCC31 (stereo unspecified),inactive: 2.79%
22,NC(N)=N/N=C/c1c(Cl)cccc1Cl,inactive: 1.14%
23,CC(C)Cn1c(=S)[nH]c2cc(C(=O)O)ccc2c1=O,inactive: -9.09%
24,NS(=O)(=O)c1cc2c(cc1Cl)NCNS2(=O)=O,inactive: -3.31%

row,SMILES,inhibition
1,O=c1[nH]c(=O)n([C@H]2C[C@H](O)[C@@H](CO)O2)cc1F,inactive: -4.33%
2,O=C(N1CCCC1)C12CC3CC(C1)CC(C(=O)N1CCCC1)(C3)C2,inactive: 6.12%
3,O=C(/C=C/c1c[nH]c2ccccc12)c1cccc2ccccc12,inactive: 38.2%
4,CS(=O)(=O)Nc1cccc(C(=O)CC2(O)C(=O)Nc3ccc(Br)cc32)c1 (stereo unspecified),inactive: -3.77%
5,COC1=CC(=O)CC(C)C12Oc1c(Cl)c(OC)cc(OC)c1C2=O (stereo unspecified),inactive: -2.99%
6,O=C(c1cc2cc(Br)ccc2o1)N1CCCC1,inactive: -5.04%
7,CC(=O)[C@H]1CC[C@H]2[C@@H]3CCC4=CC(=O)CC[C@]4(C)[C@H]3[C@H](O)C[C@]12C,inactive: 7.21%
8,Cn1cc(/C=C/C(=O)c2ccccc2)c2ccccc21,inactive: 13.7%
9,COc1ccc(-c2c3c(=O)n(C)c(=O)n(C)c3cn2C2CCCCC2)cc1,inactive: 7.04%
10,COc1cccc2cc(-c3ccccc3)c(=O)oc12,inactive: -4.71%
11,COc1cc2nc(N3CCN(C(=O)C4CCCO4)CC3)nc(N)c2cc1OC (stereo unspecified),inactive: 4.62% and inactive: -16.8%
12,C[C@H]1C[C@H]2[C@@H]3CCC4=CC(=O)C=C[C@]4(C)[C@@]3(Cl)[C@@H](O)C[C@]2(C)[C@@]1(O)C(=O)CO,inactive: -0.24%
13,CC(C)OC(=O)CC12CN3CN(C1)CC(CC(=O)OC(C)C)(C3)C2=O,inactive: -5.66%
14,CC1(C)CC(C(CC(=O)O)c2ccccc2)CCO1 (stereo unspecified),inactive: -4.33%
15,Cc1ccc(P(=O)(CSC(=N)N)c2ccc(C)cc2)cc1,inactive: 24.2%
16,COc1ccc(O)c(C(=O)/C=C/c2cc3ccccc3o2)c1,active: 73.2%
17,CCCCC[C@H](O)/C=C/[C@@H]1[C@@H](C/C=C\CCCC(=O)O)[C@H]2CO[C@@H]1C2,inactive: -6.81%
18,CCc1cc2c3c(c(=O)oc2cc1O)CCCC3,inactive: -1.19%
19,O=c1[nH]cc(F)c(=O)[nH]1,inactive: -12.1%
20,CCNC(=S)N1CCN(CCN2C(=O)c3cccc4cccc(c34)C2=O)CC1,inactive: 7.9%
21,CC(=O)c1cccc(NC(=O)N[C@@H](CC(C)C)C(=O)O)c1,inactive: 1.9%
22,CC1(C(=O)O)CCC(C(=O)NC2CCCCCC2)C1(C)C (stereo unspecified),inactive: -0.73%
23,CS(=O)(=O)Oc1ccc2c(c1)O/C(=C\C=C\c1ccccc1)C2=O,active: 53.5%
24,Nc1ncnc2c1ncn2C1OC(CO)C(O)C1O (stereo unspecified),inactive: -4.63%
